About 31,000 (8.9%) of roughly 350,000 compounds were called active. This list was built around the results that the source calls inconclusive (neither active nor inactive); the mix of calls is not that of the screen. The call rests on the fitted dose curve; in most records, active means well fitted inhibition curve with a large enough effect; inconclusive means small, poorly fitted or top-dose-only effect; inactive means no such curve, though single readings can be large or run the other way. Potencies of inconclusive entries are doubtful fits and often do not repeat.
Molecular target: Histone-lysine N-methyltransferase EHMT2 (Homo sapiens) (UniProt Q96KQ7)
Assay: qHTS Assay for Inhibitors of Histone Lysine Methyltransferase G9a; further: nearly all actives have a fitted effect of over 75% in size
Conditions: G9a H3K9 monomethylation, AlphaScreen, 2 h; activity, negative = inhibition: at 59 µM (top of the series) unless noted
In short: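 Using a bead-based AlphaScreen, monomethylated H3K9 product from 2 h room-temperature reactions (G9a 20 nM, peptide 500 nM, SAM 20 uM) was detected with 0.5 ug/mL rabbit anti-H3K9me1 antibody.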
On the % scale 0 is the no-effect control and ±100 the full control effect; potency means the concentration at half of the fitted maximal effect; tags describe the fitted curve by direction and shape.

Sequence of UniProt Q96KQ7 (Q96KQ7 whole entry, looked up): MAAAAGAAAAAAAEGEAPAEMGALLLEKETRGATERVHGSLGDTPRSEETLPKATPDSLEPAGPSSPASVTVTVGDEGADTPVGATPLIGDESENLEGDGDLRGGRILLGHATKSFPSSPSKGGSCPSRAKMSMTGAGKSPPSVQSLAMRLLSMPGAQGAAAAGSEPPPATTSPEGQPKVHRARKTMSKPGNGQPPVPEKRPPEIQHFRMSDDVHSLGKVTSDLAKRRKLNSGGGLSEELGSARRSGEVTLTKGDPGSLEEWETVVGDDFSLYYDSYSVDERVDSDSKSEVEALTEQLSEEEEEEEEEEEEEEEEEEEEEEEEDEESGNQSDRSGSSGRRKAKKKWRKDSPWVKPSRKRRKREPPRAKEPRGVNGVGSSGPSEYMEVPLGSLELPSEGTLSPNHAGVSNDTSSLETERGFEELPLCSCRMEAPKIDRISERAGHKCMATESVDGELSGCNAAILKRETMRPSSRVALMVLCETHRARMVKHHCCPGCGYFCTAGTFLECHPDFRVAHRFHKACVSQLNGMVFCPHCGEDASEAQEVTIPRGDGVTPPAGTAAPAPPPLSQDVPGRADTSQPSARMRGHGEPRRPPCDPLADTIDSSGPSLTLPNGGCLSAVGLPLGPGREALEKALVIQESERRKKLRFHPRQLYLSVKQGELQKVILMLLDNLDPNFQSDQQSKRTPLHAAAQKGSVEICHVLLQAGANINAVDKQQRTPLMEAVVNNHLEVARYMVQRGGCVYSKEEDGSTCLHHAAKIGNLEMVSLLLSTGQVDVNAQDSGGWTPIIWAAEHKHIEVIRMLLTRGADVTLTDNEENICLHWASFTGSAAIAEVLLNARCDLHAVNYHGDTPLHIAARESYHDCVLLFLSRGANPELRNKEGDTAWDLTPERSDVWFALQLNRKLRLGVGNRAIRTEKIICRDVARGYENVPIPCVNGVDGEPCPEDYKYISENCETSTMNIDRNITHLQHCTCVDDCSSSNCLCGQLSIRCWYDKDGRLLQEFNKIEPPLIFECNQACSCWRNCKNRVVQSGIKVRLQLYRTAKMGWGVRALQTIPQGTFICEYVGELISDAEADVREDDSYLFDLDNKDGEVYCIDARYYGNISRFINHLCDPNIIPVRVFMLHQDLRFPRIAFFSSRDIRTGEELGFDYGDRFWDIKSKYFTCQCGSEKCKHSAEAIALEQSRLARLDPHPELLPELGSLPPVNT

| Structure (SMILES) | Potency | activity, negative = inhibition |
| --- | --- | --- |
| CCOC(=O)c1ccccc1N/C=C/C(=O)c1cccs1 | active: 31.6 µM |  |
| COc1cc(CN2CCNC(=O)C2CC(=O)NCCc2ncccc2C)cc(OC)c1 (stereo not given) | inconclusive: 31.6 µM [inhibitor, partial curve, poor fit] |  |
| CCCc1nnc(NC(=O)c2nc(S(=O)(=O)Cc3ccc(C)cc3)ncc2Cl)s1 | active: 12.6 µM |  |
| Cc1ccc(C)c(N2CCN(C(=O)CCNC(=O)Cn3ccc4ccccc4c3=O)CC2)c1 | inconclusive: 17.8 µM [inhibitor, partial curve, poor fit] |  |
| COc1ccccc1NC(=O)N(Cc1ccco1)Cc1cc2c(C)ccc(C)c2[nH]c1=O | inconclusive: 22.4 µM [inhibitor, single point] |  |
| NC(=O)c1cc(S(=O)(=O)NCC2CCC(C(=O)Nc3cccc(Cl)c3)CC2)cs1 (stereo not given) | inactive |  |
| Cc1c(Cl)cccc1NC(=O)CCS(=O)(=O)c1ccc(Br)s1 | inactive |  |
| O=C(O)c1ccc2[nH]c3c(c2c1)CSCC3 | inconclusive: 5.01 µM [inhibitor, single point] |  |
| O=C(CSc1ccccc1)NCc1ccco1 | inactive |  |
| O=C(Nc1ccc2c(c1)OCO2)Nc1ccc(Cl)cc1Cl | inactive |  |
| COc1cc2c(cc1OC)C(c1ccccc1)N(C(=O)CCl)CC2 (stereo not given) | inactive |  |
| Cc1[nH]c2ccccc2c1N=Nc1cc(C(=O)O)cc(C(=O)O)c1 | active: 35.5 µM |  |
| COc1ccc(CN(C)C(=O)c2cccc(NS(=O)(=O)c3ccccc3)c2)cc1F | inconclusive: 89.1 µM [inhibitor, single point] |  |
| C=CCNC(=S)NNc1nc2c(c(=O)[nH]1)C1(CCCCC1)Cc1ccccc1-2 | active: 14.1 µM |  |
| CCOc1ccccc1NS(=O)(=O)c1c(-c2ccc(C)cc2)csc1C(=O)OC | inactive |  |
| COc1ccc(Cl)cc1NC(=O)c1ccoc1C |  | inactive: -28.8% [at 12.7 µM] |
| Cc1ccc(C(=O)NCC(c2ccco2)N2CCc3ccccc32)cc1C (stereo not given) |  | inactive: 4.98% [at 0.501 µM] |
| O=C(c1ccc(N2CCCCC2)c([N+](=O)[O-])c1)N1CCN(S(=O)(=O)c2ccccc2)CC1 | inconclusive: 2.82 µM [inhibitor, partial curve, poor fit] |  |
| Cc1cccc(C)c1OCc1cc(C(=O)N2CCN(Cc3nccn3C)CC2)no1 | inactive |  |
| O=C(Cn1cc2c(n1)CCCC2)NCc1cccs1 | inconclusive: 89.1 µM [inhibitor, single point] |  |
| CC(Sc1ncn[nH]1)C(=O)c1c(N)n(C)c(=O)n(C)c1=O (stereo not given) | inconclusive: 39.8 µM [inhibitor, single point] |  |
| CCN1C/C(=C/c2ccc(N3CCOCC3)cc2)C(=O)/C(=C/c2ccc(N3CCOCC3)cc2)C1 | active: 39.8 µM |  |
| Cc1cc(/C=C(\C#N)C(=O)O)c(C)n1C1CC1 | inconclusive: 0.631 µM [inhibitor, full curve] |  |

| Structure (SMILES) | Potency | activity, negative = inhibition |
| --- | --- | --- |
| FC(F)(F)c1ccc(CN2C[C@@H]3C(c4ccccc4)C4(c5ccccc5)CC3(C4)[C@H]2c2ccccc2)cc1 (stereo not given in full) | inconclusive: 39.8 µM [inhibitor, single point] |  |
| CCc1ccc(NC(=O)Nc2cc(C(=O)NCC3CCCO3)ccc2N2CC3CC(C2)c2cccc(=O)n2C3)cc1 (stereo not given) | inconclusive: 22.4 µM [inhibitor, partial curve, poor fit] |  |
| COc1cc(OC)cc(C(=O)NC(=S)Nc2cc3oc4ccccc4c3cc2OC)c1 | inconclusive: 28.2 µM [inhibitor, single point] |  |
| CN1CCN(c2ccc(NC(=O)c3ccccc3)cc2)CC1 | inactive |  |
| CN(C)CCCN(C(=O)c1ccc(S(=O)(=O)N2CCCCC2)cc1)c1nc2cc3c(cc2s1)OCO3 | active: 50.1 µM |  |
| CCN(CC)CCCCN1c2ccccc2Sc2ccccc21 | inconclusive: 89.1 µM [inhibitor, single point] |  |
| O=c1c2c3c(sc2nc2n1CCC2)CCCC3 |  | inconclusive: -57.3% [inhibitor] |
| COc1cc(OC)c2c(-c3ccccc3)cc(=O)oc2c1C(CCN1CCCC(C)C1)c1ccc(N(C)C)cc1 (stereo not given) | inconclusive: 14.1 µM [inhibitor, single point] |  |
| CC(=O)c1c(O)c(C)c(O)c2c1OC1=CC(=O)C(C(C)=O)C(=O)[C@@]12C (stereo not given in full) | active: 50.1 µM |  |
| CCC1=NN(C(=O)CCc2ccc3c(c2)OCO3)C(O)(C(F)(F)F)C1 (stereo not given) | inconclusive: 50.1 µM [inhibitor, partial curve, poor fit] |  |
| CCN(CC)c1ccc(NC(=O)c2cccc(OC)c2)c(C)c1 | inconclusive: 39.8 µM [inhibitor, single point] |  |
| CCCn1c(N)c(C(=O)CSc2nnc(Cc3ccccc3)o2)c(=O)n(C)c1=O | inconclusive: 35.5 µM [inhibitor, single point] |  |
| OC(COc1cccc2ccccc12)CN1CCN(c2ccc(Cl)cc2)CC1 (stereo not given) | active: 44.7 µM |  |
| Cc1ccc(CN2CCN(/N=C/c3ccco3)CC2)c(C)c1 | inconclusive: 22.4 µM [inhibitor, single point] |  |
| Cc1cc(-n2nc3ccccc3n2)c(O)c([N+](=O)[O-])c1 | active: 79.4 µM |  |
| CCc1sc(NC(=O)C(C)C)nc1-c1ccccc1 | inconclusive: 44.7 µM [inhibitor, partial curve] |  |
| N=c1c(C(=O)NCCN2CCOCC2)cc2c(=O)n3ccccc3nc2n1CCc1ccccc1 | inconclusive: 79.4 µM [inhibitor, single point] |  |
| O=C(NC(=S)NCc1ccc2c(c1)OCO2)c1ccccc1 | inconclusive: 39.8 µM [inhibitor, single point] |  |
| CCCNC(=O)Nc1cc(C(=O)NCc2cccc(OCC)c2)ccc1N1CCCC1 | inactive |  |
| CC(C)[C@@H](C(=O)N1CCNCC1)n1cc(CCO)nn1 |  | inconclusive: -64.8% [inhibitor] |
| Cc1ccccc1Cn1c(=O)n(CCCC(=O)NCc2ccco2)c(=O)c2ccccc21 | inconclusive: 25.1 µM [inhibitor, single point] |  |
| Fc1c(F)c(F)c(CSc2nc3ccccc3[nH]2)c(F)c1F |  | inactive: 3.73% [at 12.7 µM] |

— PubChem BioAssay AID504332 (National Center for Advancing Translational Sciences (NCATS), 2011)
